# From PubChem BioAssay AID686970 (National Center for Advancing Translational Sciences (NCATS), 2013)
# Hit rate of the full screen: of about 360,000 compounds, about 6,000 (1.7%) were called active. The shares of active, inactive and inconclusive entries below differ from those in the screen. The call rests on the fitted dose curve; in most records, active means well fitted cell-killing curve with a large enough effect; inconclusive means small, poorly fitted or top-dose-only effect, or effect the other way; inactive means flat fitted curve, though single readings scatter. Potencies of inconclusive entries are left out as doubtful fits.
# Assay: qHTS for induction of synthetic lethality in tumor cells producing 2HG: qHTS for the HT-1080-NT fibrosarcoma cell line;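 further: NT is the 2HG producing partner of a matched IDH1 knockdown line; nearly all actives have a fitted effect of over 55% in size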
# Details: HT-1080-NT fibrosarcoma viability, CellTiter-Glo ATP luminescence, 48 h; series mostly up to 46.1 µM
# In short: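 HT-1080-NT; 750 cells/well; 5% FBS RPMI; 48 h compound, 37 degrees C; CellTiter-Glo luminescence; curve fitting and curve-class assignment.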
# Potency means the concentration at half of the fitted maximal effect; tags describe the fitted curve by direction and shape.
row,SMILES,Potency
1,CS(=O)(=O)c1ccc(Cl)c(NC(=O)COC(=O)CNC(=O)c2ccc3ccccc3c2)c1,inactive
2,Cc1nc([N+](=O)[O-])c(Br)n1Cc1ccc(Cl)c(Cl)c1,"inconclusive [cytotoxic, single point]"
3,CN(C)c1ccc(-c2[nH][nH]c(=O)c2NC(=O)c2ccccn2)cc1,"inconclusive [cytotoxic, single point]"
4,Cc1cccc(N(CC(=O)NCc2ccco2)S(=O)(=O)c2ccccc2)c1,inactive
5,Cn1cc([N+](=O)[O-])c(C(=O)Nc2cc(Oc3ccccc3)cc([N+](=O)[O-])c2)n1,active: 18.4 µM
6,CC(=O)Nc1ccc(C2=NNC(=Nc3cccc(S(=O)(=O)N(C)C)c3)SC2)cc1,"inconclusive [cytotoxic, partial curve]"
7,Fc1ccccc1-c1ccc(/C=N/Nc2nc3ccccc3[nH]2)o1,"inconclusive [cytotoxic, partial curve]"
8,COCCn1c(SCC(=O)Nc2ccc(C)cc2)nc2c(oc3ccccc32)c1=O,inactive
9,CC1(C)N=c2ccc([N+](=O)[O-])c(N)c2=[N+]1[O-],"inconclusive [cytotoxic, single point]"
10,Clc1ccc(CSC2=NCCCN2)cc1Cl,"inconclusive [cytotoxic, partial curve]"
11,Cc1cccc(/C(N)=N/OC(=O)N2CCOCC2)c1,"inconclusive [cytotoxic, single point]"
12,NC(CSCc1cccc(Br)c1)C(=O)O (stereo not given),inactive
13,Cc1cc(C)n2nc(CNS(=O)(=O)c3c(F)c(F)c(F)c(F)c3F)nc2n1,"inconclusive [cytotoxic, single point]"
14,CC(C)C[C@H]1CN([C@@H](Cc2ccccc2)CN2CCC[C@@H]2CN2C(=O)C(=O)NC[C@@H]2Cc2ccccc2)C(=O)C(=O)N1CCc1ccccc1,"inconclusive [cytotoxic, single point]"
15,COc1ccc(NC(=O)C2CCCN(S(=O)(=O)c3cccc4nonc34)C2)cc1 (stereo not given),"inconclusive [cytotoxic, single point]"
16,Fc1ccc(NC(=S)Nc2ccc(Br)cc2)cc1,"inconclusive [cytotoxic, single point]"
17,Oc1ccccc1C=NNc1nc2ccccc2s1,active: 18.4 µM
18,O=C(c1ccccc1)c1ccc(OCC(O)CNCc2ccc(Cl)cc2)cc1 (stereo not given),inactive
19,CCCCNc1c(-c2cccc(-c3ccc(OC)cc3)c2)nc2cc(C)ccn12,"inconclusive [cytotoxic, single point]"
20,Cc1ccccc1NC(=O)c1nc(S(C)(=O)=O)ncc1Cl,active: 14.6 µM
21,O=C(O)c1nn(CC(=O)N2CCN(c3ncc(C(F)(F)F)cc3Cl)CC2)c(=O)c2ccccc12,inactive
22,CCn1cnc2sc(C(=O)N(Cc3ccc(N(C)C)cc3)Cc3ccco3)c(C)c2c1=O,inactive
23,C/C(=N\Nc1nc2ccccc2c(=O)n1O)c1ccco1,inactive
24,CC1C(C)N(C(=O)CCl)c2ccccc2N1C(=O)CCl (stereo not given),"inconclusive [cytotoxic, single point]"
25,COc1cccc(NS(=O)(=O)c2ccc3c(c2)C2C=CCC2C(c2ccc(C(=O)O)cc2)N3)c1 (stereo not given),inactive

row,SMILES,Potency
1,Nc1nc(N2CCN(C(=O)c3ccco3)CC2)nc2ccc(Br)cc12,"inconclusive [cytotoxic, single point]"
2,COc1ccc2c(c1)c(=O)cc(-c1ccccc1)n2C,inactive
3,CCOc1cc(/C=C2/SC(=S)N(CC3CCCO3)C2=O)ccc1O (stereo not given),inactive
4,FC(F)(F)COc1nc(OCC(F)(F)F)nc(N2CCN(c3ccccc3)CC2)n1,inactive
5,CC(C)(C)NCC(=Cc1ccccc1)C(=O)c1ccccc1,active: 6.51 µM
6,c1ccc(NC2=NCCN2CCCC2CCCCC2)cc1,inactive
7,CN(C(=O)COC(=O)c1ccccc1C(=O)c1ccccc1)c1ccccc1,inactive
8,O=C(CCS(=O)(=O)c1ccccc1)Nc1nc(-c2ccc(F)cc2)cs1,"inconclusive [cytotoxic, single point]"
9,Cc1ccc(C2(c3ccc(C)cc3)CC2C(=O)NC(C)C)cc1 (stereo not given),"inconclusive [cytotoxic, partial curve]"
10,COc1cccc(N2C(N)=NC(N)=NC2(C)C)c1,active: 6.51 µM
11,O=C(Nc1cnn(Cc2ccc(F)cc2)c1)c1cc(-c2cccs2)on1,"inconclusive [cytotoxic, single point]"
12,COc1ccc(C2c3cc4c(cc3OC(NNC(N)=O)C2C)OCO4)cc1 (stereo not given),"inconclusive [cytotoxic, single point]"
13,CC(=O)[C@@]1(O)CC[C@H]2[C@@H]3CCC4=CC(=O)CC[C@]4(C)[C@H]3[C@@H](O)C[C@@]21C,"inconclusive [rising, single point]"
14,O=C(CCl)Nc1cn(-c2ccccc2)nc1-c1ccc(F)cc1,active: 8.2 µM
15,CSCCC(c1nnnn1C1CCCC1)N1CCN(C/C=C/c2ccccc2)CC1 (stereo not given),inactive
16,COC(=O)c1cccc(NC(=O)Nc2ccc(Cl)c(Cl)c2)c1,"inconclusive [cytotoxic, single point]"
17,CCC1CCc2sc(C(=O)N(C)CC(=O)Nc3ccc(OC)cc3)cc2C1 (stereo not given),inactive
18,CN(CC(=O)Nc1cccnc1)S(=O)(=O)c1ccccc1,inactive
19,C=C(C)COc1ccc(-c2[nH]ncc2Oc2ccc(OC)cc2)c(O)c1,"inconclusive [cytotoxic, single point]"
20,CC1(Cc2ccccc2OC(F)(F)F)C(=O)Nc2c(Cl)ccc(Cl)c21 (stereo not given),"inconclusive [cytotoxic, single point]"
21,C/C(=N\NS(=O)(=O)c1ccccc1)c1cccc(NC(=O)c2cccc(Cl)c2)c1,"inconclusive [cytotoxic, single point]"
22,COc1ccccc1-c1nnc(NC(=O)CCS(=O)(=O)c2ccccc2)o1,"inconclusive [cytotoxic, single point]"
23,Cc1ccc(NS(=O)(=O)c2ccc(Cl)c(NC(=S)NC(=O)C3CCCCC3)c2)cc1Cl,"inconclusive [cytotoxic, single point]"
24,O=c1cc(O)nc(SCc2ccccc2)n1-c1ccc(Cl)cc1,inactive
25,CCCOc1ccc(C(=O)CCC(=O)OC(C)C(=O)Nc2ccc(NC(C)=O)cc2)cc1 (stereo not given),inactive

row,SMILES,Potency
1,Cc1ccc2nc(-c3cccc(N)c3)[nH]c2c1,"inconclusive [cytotoxic, single point]"
2,N=c1c2c(-c3ccccc3)c(-c3ccccc3)n(Cc3ccccc3)c2ncn1CCCn1ccnc1,active: 23.1 µM
3,COc1ccc(/C=C/C(=O)c2ccc3c4c(cccc24)CC3)cc1OC,"inconclusive [cytotoxic, partial curve]"
4,Cc1ccc(N=C2NC(=O)CC(C(=O)Nc3ccc4c(c3)OCO4)S2)cc1 (stereo not given),"inconclusive [cytotoxic, single point]"
5,COCCNc1nc(NCc2cccc(OC)c2OC)c2sccc2n1,"inconclusive [cytotoxic, single point]"
6,CCCCn1c(=N)n(CC(=O)c2ccc(Br)s2)c2ccccc21,"inconclusive [cytotoxic, single point]"
7,COc1ccc(F)cc1-c1cc(NC(C)=O)c2ncc(-c3cccc(C(F)(F)F)c3)n2c1,"inconclusive [cytotoxic, single point]"
8,O=C(Cc1cn(Cc2cccc(Cl)c2)c2ccccc12)N1CCCCCC1,inactive
9,CCOc1ccc(N(C)S(=O)(=O)c2ccc(C)c(C(=O)NCCc3ccc(OC)cc3)c2)cc1,inactive
10,CCn1c(CNC(=O)C23CC4CC(CC(C4)C2)C3)nnc1SC,inactive
11,O=S(=O)(c1ccc(OCC(O)CNC23CC4CC(CC(C4)C2)C3)c(Cl)c1)N1CCOCC1 (stereo not given),active: 20.6 µM
12,O=C(CSc1ccc2ccccc2n1)N/N=C/c1ccc(O)cc1,"inconclusive [cytotoxic, single point]"
13,CCOc1ccc(S(=O)(=O)NC2=NCCCCC2)cc1,inactive
14,CC1(C(=O)Nc2cccc(NS(C)(=O)=O)c2)Cc2c(-c3cccc(C(N)=O)c3)ccnc2O1 (stereo not given),inactive
15,O=C(CNCC1CCCCC1)Nc1ccccc1N1CCCCC1,"inconclusive [cytotoxic, single point]"
16,COc1ccc(N2C(=O)c3ccccc3NC(=O)C2C(=O)NCC(C)C)cc1 (stereo not given),inactive
17,O=C(N/N=C/c1ccccc1[N+](=O)[O-])C(=O)N1CCCC1,inactive
18,COc1cc(C(C)=O)ccc1OCC(=O)NCCCn1nc(C)cc1C,inactive
19,COc1ccc(CNC(=O)c2ccc(N(C)S(=O)(=O)c3ccc(C)cc3)cc2)cc1,inactive
20,COc1ncnc2c1sc1nc(-c3ccccc3)c3c(c12)CCCC3,inactive
21,CN1C=CC=C/C1=C1\SC(=S)N(N)C1=O,inactive
22,COc1cccc(C(C)(O)c2nc(-c3ccccc3)cs2)c1 (stereo not given),"inconclusive [cytotoxic, single point]"
23,CC1CCCCN1S(=O)(=O)c1ccc(C(=O)Nc2nnc(-c3ccccc3Cl)o2)cc1 (stereo not given),"inconclusive [cytotoxic, partial curve]"
24,Cc1cccc(C)c1N1CCN(C(c2ccnc3ccccc23)c2nnnn2-c2ccc3c(c2)OCCO3)CC1 (stereo not given),"inconclusive [cytotoxic, partial curve]"
25,Cc1ccc(-c2nnn(CC(=O)Nc3cccc4c3CCCC4)n2)o1,"inconclusive [cytotoxic, single point]"
